Measured values: patent publication US20250032630A1, “B7H4 ANTIBODY-DRUG CONJUGATE AND USE THEREOF” (Duality Biologics (Suzhou) Co., Ltd., priority 2022, published 2025)

Legend:
[1] = tested on: human breast cancer cells MX-1 subcutaneous xenograft; assay: Pharmacodynamic evaluation in tumor-bearing mice (MX-1); format: in vivo
human B7H4 = target: T1, human B7H4 (Homo sapiens, UniProt Q7Z7D3); assay: Species cross-reactivity, flow cytometry binding to B7H4-transfected HEK293T cells; design: expressed in transfected cells; host or cells: HEK293T; details: Human B7H4-293T
T1 sequence (Q7Z7D3 25-282): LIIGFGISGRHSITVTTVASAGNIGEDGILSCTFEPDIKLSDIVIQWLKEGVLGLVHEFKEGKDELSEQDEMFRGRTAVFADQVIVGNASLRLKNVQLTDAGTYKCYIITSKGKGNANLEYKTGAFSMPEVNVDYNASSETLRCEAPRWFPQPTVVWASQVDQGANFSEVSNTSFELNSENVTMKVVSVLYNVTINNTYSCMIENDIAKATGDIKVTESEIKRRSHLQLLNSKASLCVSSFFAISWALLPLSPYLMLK

[2] = tested on: human ovarian cancer cells OVCAR-3 subcutaneous xenograft; assay: Pharmacodynamic evaluation in tumor-bearing mice (OVCAR-3); format: in vivo
[3] = tested on: breast cancer cells JIMT-1 negative for B7H4 expression; assay: In vitro proliferation inhibition (3D cell culture, CTG); format: cell-based; details: JIMT-1, 3D culture, 6 days
Protocol: (§1) The cells in the logarithmic growth phase were collected and a cell culture medium was added to resuspend the cells to prepare a single cell suspension. The single cell suspension was adjusted to a live cell density of […], and 3.5 mL of the cell suspension was mixed uniformly with 6.5 mL of 1% methylcellulose, avoiding bubbles as much as possible. 90 μL of the cell suspension was added to each well of 96-well plates, and the plates were cultured overnight in an incubator with 5% CO2 at 37° C. On the second day of the experiment, the test article was diluted with a complete medium to obtain a 10× solution, 10 μL of the test article solution (the highest final concentration of 100 nM, 9 concentrations, 3-fold dilution) was added to each well, the complete medium was used as a blank control, and 3 replicate wells were set up; and the plates were incubated in the incubator at 37° C. for another 6 days. After the incubation was completed, the cell culture plates were taken out and equilibrated to room temperature, and 100 μL of CTG detection reagent (Promega, Cat #: G7573) was added to each well. The plates were shaken and mixed uniformly, then left to stand in the dark for 10 minutes, and then placed at room temperature for 30 minutes to stabilize the luminescence signal. Luminescence was read using EnVision. Using GraphPad Prism software, a sigmoidal dose-response curve was plotted by using a non-linear regression model, and the IC50 value was calculated. Cell viability calculation

[4] = tested on: human breast cancer cells MX-1 with high expression of B7H4; assay: as above; format: cell-based; details: MX-1, 3D culture, 6 days, highest concentration 100 nM
Protocol: as §1

[5] = tested on: endometrial carcinoma cells RL95-2 with low expression of B7H4; assay: as above; format: cell-based; details: RL95-2, 3D culture, 6 days, highest concentration 100 nM
Protocol: as §1

cynomolgus monkey B7H4 = assay: Species cross-reactivity, flow cytometry binding to B7H4-transfected HEK293T cells; details: Monkey B7H4-293T
[6] = tested on: MDA-MB-468 cells subcutaneous xenograft; assay: Pharmacodynamic evaluation in MDA-MB-468 tumor-bearing mice; format: in vivo; details: for Tumor volume: mean ± standard error
human B7-H7 (HHLA2) = target: T2, human B7-H7 (HHLA2) (Homo sapiens, UniProt Q9UM44); assay: Binding specificity to cells overexpressing human B7 family proteins (flow cytometry); details: CHO-KI stably expressing the protein, 100 nM or 300 nM
T2 construct: expressed in transfected cells
T2 sequence (Q9UM44 23-414): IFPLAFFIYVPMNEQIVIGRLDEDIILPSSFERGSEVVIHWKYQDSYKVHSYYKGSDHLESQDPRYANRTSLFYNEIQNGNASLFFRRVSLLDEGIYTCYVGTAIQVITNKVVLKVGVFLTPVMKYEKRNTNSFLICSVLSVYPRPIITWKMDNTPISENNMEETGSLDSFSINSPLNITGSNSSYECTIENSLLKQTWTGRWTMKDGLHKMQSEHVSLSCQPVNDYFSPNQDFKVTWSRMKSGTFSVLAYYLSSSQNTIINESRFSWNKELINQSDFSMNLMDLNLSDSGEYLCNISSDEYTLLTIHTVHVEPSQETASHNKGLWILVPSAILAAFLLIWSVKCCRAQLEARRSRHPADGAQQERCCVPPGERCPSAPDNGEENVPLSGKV

human VISTA (B7-H5) = target: T3, human VISTA (B7-H5) (Homo sapiens, UniProt Q9H7M9); assay: as above; details: HEK293T stably expressing the protein, 100 nM or 300 nM
T3 construct: expressed in transfected cells
T3 sequence (Q9H7M9 33-311): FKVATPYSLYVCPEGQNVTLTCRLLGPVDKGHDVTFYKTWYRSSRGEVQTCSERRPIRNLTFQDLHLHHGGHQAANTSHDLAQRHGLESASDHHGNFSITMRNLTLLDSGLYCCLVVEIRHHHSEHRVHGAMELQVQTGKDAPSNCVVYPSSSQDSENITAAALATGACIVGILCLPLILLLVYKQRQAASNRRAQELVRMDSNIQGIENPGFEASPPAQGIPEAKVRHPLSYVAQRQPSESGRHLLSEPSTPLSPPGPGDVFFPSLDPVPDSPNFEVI

[7] = Pharmacokinetics of antibody-drug conjugate in cynomolgus monkeys; details: cynomolgus monkey, in vivo, iv

B1: DB1001-X2: anti-B7H4 antibody DB1001 conjugated with linker-cytotoxin X2, DAR 5.4 (conjugate)
heavy: QVQLVESGGGVVQPGRSLRLSCAASGFTFRSFGMHWVRQAPGKGLEWVAVISYDASNEYYADSVKGRFIISRDNSKDTLYLQMNSLRAGDTAVYYCAKGGALRWYFAYWGQGTLVTVSS[in this place human IgG1 constant region]
light: EIVMTQSPATLSVSPGERATLSCRASQSISSNLGWYQQKPGQAPRLLIYGASTRATGIPARFSGSGSGTEFTLTISSLQSEDFAVYYCQQYRSWPPLTFGGGTKVEIKRTVAAPSVFIFPPSDEQLKSGTASVVCLLNNFYPREAKVQWKVDNALQSGNSQESVTEQDSKDSTYSLSSTLTLSKADYEKHKVYACEVTHQGLSSPVTKSFNRGEC
[1]; MX-1, day 27, 1 mg/kg
  T/C: 45.83%
  TGI: 54.17%
[1]; MX-1, day 27, 1 mg/kg i.v. once every two weeks x2, mean ± standard error
  Tumor volume: 1521.41 ± 281.89 mm^3
[1]; MX-1, day 27, 3 mg/kg
  T/C: 4.64%
  TGI: 95.36%
[1]; MX-1, day 27, 3 mg/kg i.v. once every two weeks x2, mean ± standard error
  Tumor volume: 154.12 ± 60.47 mm^3
Human B7H4
  MFI.Max: 10312
[2]; OVCAR-3, day 27, 1 mg/kg
  T/C: 34.15%
  TGI: 65.85%
[2]; OVCAR-3, day 27, 1 mg/kg i.v. once every two weeks x2, mean ± standard error
  Tumor volume: 390.93 ± 85.40 mm^3
[2]; OVCAR-3, day 27, 3 mg/kg
  T/C: 10.74%
  TGI: 89.26%
[2]; OVCAR-3, day 27, 3 mg/kg i.v. once every two weeks x2, mean ± standard error
  Tumor volume: 122.94 ± 17.80 mm^3
[2]; OVCAR-3, day 27, 10 mg/kg
  T/C: 4.17%
  TGI: 95.83%
[2]; OVCAR-3, day 27, 10 mg/kg i.v. once every two weeks x2, mean ± standard error
  Tumor volume: 47.72 ± 7.95 mm^3
[3]
  IC50: > 100 nM
[3]; highest concentration 100 nM
  Max inh.: 2.53%
[4]
  Max inh.: 55.47%
[5]
  Max inh.: 60.44%
Cynomolgus monkey B7H4
  MFI.Max: 10869
[6]; day 0, 3 mg/kg i.v. single injection
  Tumor volume: 172 ± 11 mm^3
[6]; day 0, 10 mg/kg i.v. single injection
  Tumor volume: 170 ± 14 mm^3
[6]; day 4, 3 mg/kg i.v. single injection
  Tumor volume: 179 ± 10 mm^3
[6]; day 4, 10 mg/kg i.v. single injection
  Tumor volume: 173 ± 14 mm^3
[6]; day 7, 3 mg/kg i.v. single injection
  Tumor volume: 143 ± 8 mm^3
[6]; day 7, 10 mg/kg i.v. single injection
  Tumor volume: 93 ± 11 mm^3
[6]; day 11, 3 mg/kg i.v. single injection
  Tumor volume: 67 ± 3 mm^3
[6]; day 11, 10 mg/kg i.v. single injection
  Tumor volume: 38 ± 1 mm^3
[6]; day 14, 3 mg/kg i.v. single injection
  Tumor volume: 56 ± 3 mm^3
[6]; day 14, 10 mg/kg i.v. single injection
  Tumor volume: 32 ± 1 mm^3
[6]; day 18, 3 mg/kg i.v. single injection
  Tumor volume: 48 ± 2 mm^3
[6]; day 18, 10 mg/kg i.v. single injection
  Tumor volume: 25 ± 1 mm^3
[6]; day 21, 3 mg/kg
  T/C: 13.78%
  TGI: 151.33%
[6]; day 21, 3 mg/kg i.v. single injection
  Tumor volume: 55 ± 3 mm^3
[6]; day 21, 10 mg/kg
  T/C: 4.97%
  TGI: 165.84%
[6]; day 21, 10 mg/kg i.v. single injection
  Tumor volume: 20 ± 0 mm^3
Human B7-H7 (HHLA2)
  binding to B7-H7: not detected
Human VISTA (B7-H5)
  binding to B7-H5: not detected
[7]; 30 mg/kg
  AUC0-t: 51863.287 µg·h/mL
  T1/2: 164.9 h
[7]; 80 mg/kg
  AUC0-t: 183899.767 µg·h/mL
  T1/2: 218.5 h
